This is an account of results in PubChem BioAssay (NCI).

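How tested: cells in 96-well plates exposed to compound for 48 hours at five concentrations. GI50 marks 50% less growth. TGI: concentration producing complete growth inhibition.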

For the assay, the system named is NCI-H322M lung. Briefly: NCI anticancer screen, dose series, 48 h.
`Cc1c(C2CCSc3ccccc3N2)sc2ccccc12` (stereo not drawn) had a TGI of more than 100 µM.
`O=C1c2cc3ncsc3cc2C(=O)c2c(O)ccc(O)c21` showed a TGI of more than 100 µM.
The compound `Clc1ncnc2c1nc(C#Cc1ccccc1)n2C1CCCCO1` (stereo not drawn) showed a TGI of 3.24 µM.
For `Cn1cccc1-c1cc(-c2ccccc2)nc(N)c1C#N`, the GI50 was more than 100 µM and the TGI was more than 100 µM.
For `CC1=C(SCCC(=O)OC(C[Se]C2=C(C)C(=O)c3ccccc3C2=O)C(=O)NC(C)(C)C)C(=O)c2ccccc2C1=O` (stereo not drawn), the GI50 was 0.326 µM and the TGI was 1.35 µM.
Take `Cc1cc(O)c(C(C)C)cc1C(=S)Nc1ccc(Cl)cc1`: the TGI was 29.5 µM.
Take `CCOC(=O)C(=O)Nc1nc2ccc(C)cc2s1`: the TGI was more than 100 µM.
Compound `Cc1ccc2c(=O)cc(-c3cccc(F)c3)[nH]c2n1` came in with a TGI of more than 100 µM.
`C=C1CC(O)C2C(=C)C(=O)OC2C2C(C)C(=O)CC12` (stereo not drawn) showed a TGI of more than 100 µM.
`O=[N+]([O-])c1ccc(Nc2cccc3c2[nH]c2c(-c4ccccc4)nccc23)c([N+](=O)[O-])c1`: the TGI was more than 100 µM.
Turning to `COC(=N)CCCl`, the TGI was more than 100 µM.
`COc1ccc(F)cc1-c1ccnc2[nH]c(C3=CCN(C4CCC(CC(=O)O)CC4)CC3)cc12` (stereo not drawn): the GI50 was 0.287 µM and the TGI is more than 100 µM.
Compound `CCOC(=O)C1=C(C)N(Cc2ccccc2)C2(O)C(OC)CC(=O)C3C(=O)N(c4ccccc4)C(=O)C132` (stereo not drawn) yielded a TGI of 36.6 µM.
On to `COC(=O)c1cc(C)[nH]c2c(C)cc3nc4ccccc4c3c12`, for which the GI50 is 16.5 µM and the TGI came out at 31.4 µM.
On to `Cn1c2ccccc2c2c3c(c4c5ccccc5n(C)c4c21)C(=O)N(c1ccccc1)C3=O`, for which the TGI was more than 100 µM.
With `CCOC(=O)N(O)c1ccc(/C=C/c2ccccc2)cc1`, the GI50 is 11.4 µM and the TGI turned out to be 57.8 µM.
Turning to `C=C(CN1CCN(c2ccc(F)c(Cl)c2)CC1)c1ccc(C(=O)Nc2ccccc2N)cc1`, the GI50 was 17.8 µM and the TGI was more than 100 µM.
Take `COc1ccc(/C=C/C(=O)c2ccc(Nc3nc(Nc4ccc(F)cc4)nc(Nc4ccc(F)cc4)n3)cc2)cc1`: the GI50 was 14.5 µM and the TGI was more than 100 µM.
`OCC(S)CS.[Bi]` (stereo not drawn) registered a TGI of 40.5 µM.
On to `CCN(CC)C(=O)c1cc([N+](=O)[O-])c(=O)n2c1[nH]c1ccccc12`, for which the TGI is more than 100 µM.
As to `CC(=O)c1c(O)cc(O)c(-c2c(C)cc(O)c3c2C(=O)c2cccc(O)c2C3=O)c1O`, the TGI was 28.4 µM.
For the compound `COc1ccc2c(c1)[nH]c1c3ccc(OC)cc3oc(=O)c21`, the TGI was more than 100 µM.
In the case of `COc1cc([C@@H]2c3cc4c(cc3[C@@H](NCc3cccc(F)c3)C3COC(=O)[C@@H]32)OCO4)cc(OC)c1O` (stereo partly drawn), the TGI was more than 65 µM.
On to `COc1ccc(/C=C2/CSC/C(=C/c3ccc(OC)c(OC)c3)C2=O)cc1OC`, for which the TGI was 56.5 µM.
`C=C1C(=O)OC2(C)CCC1CC1OC1(C)CCC=C(C)CCC2O` (stereo not drawn) showed a TGI of more than 100 µM.
Regarding `CS(=O)(=O)CCNCc1ccoc1-c1ccc2ncnc(Nc3ccc(OCc4ccccc4)cc3)c2c1`, the GI50 is 5 µM and the TGI was more than 25 µM.
The compound `c1ccc(OCc2nnc(CCCCCCCCc3nnc(COc4ccccc4)o3)o2)cc1` showed a TGI of more than 100 µM.
The compound `COc1ccc(C2NC(N)=C(C#N)C3=C2C(C)CCC3)cc1OC` (stereo not drawn) came in with a TGI of more than 100 µM.
The same measure, in the same setting: with `NNS(=O)(=O)c1ccc(/C=C2\NC(=O)NC2=O)cc1` the figure was more than 100 µM.
`NC1=C(O)C(=O)C(c2c[nH]c3ccc(OCc4ccccc4)cc23)O1` (stereo not drawn) displayed a TGI of more than 100 µM.
Same read-out and setting: with `Nc1ccn(CC(O)c2cc3ccccc3[nH]2)c(=O)n1` (stereo not drawn) the figure was more than 100 µM; with `CC(C)N1[C@@H]2CCCC[C@H]2N(C(C)C)[P+]1=O`, more than 100 µM; with `CCOC(=O)CC(C)C1(C=O)CCCCC1=O` (stereo not drawn), more than 100 µM.
`CC/C(C)=C1\CCC(CN(C)C)C1=O` (stereo not drawn) registered a TGI of more than 100 µM.
For `CCCCCCCCCCCCCCCCCCNc1nc(=O)n(C2CC(OP(=O)(O)OCC3OC(n4cc(F)c(=O)[nH]c4=O)CC3O)C(CO)O2)cc1F` (stereo not drawn), the TGI is more than 100 µM.
